Laboratory results as given in the supplement of paper PMC4604168 (melanoma cell lines).
Some of the results follow. Most values come without repeats; read them as rough.

Assays:
Experiment in all cases: cell count relative to DMSO control; melanoma cells; higher = more viable cells
Settings in all cases: library dose: standard library concentration; 72 h
G361 = test system: G361
IPC-298 = test system: IPC-298
IST-MEL1 = test system: IST-MEL1
LOXIMVI = test system: LOXIMVI
MEL-HO = test system: MEL-HO
MeWo = test system: MeWo
RPMI7951 = test system: RPMI7951
RVH-421 = test system: RVH-421
SkMel28 = test system: SkMel28
SkMel30 = test system: SkMel30
SkMel5 = test system: SkMel5
UACC257 = test system: UACC257
UACC62 = test system: UACC62
WM115 = test system: WM115
WM1716 = test system: WM1716
WM3526 = test system: WM3526
SkMel2 = test system: SkMel2
WM1745 = test system: WM1745
LB2518-MEL = test system: LB2518-MEL
MZ2-MEL = test system: MZ2-MEL
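Note: cells treated in 1,536-well plates, then fixed and DAPI-stained, with nuclei counted from automated high-throughput microscope images.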

SMILES | cell count (G361) | cell count (IPC-298) | cell count (IST-MEL1) | cell count (LOXIMVI) | cell count (MEL-HO) | cell count (MeWo) | cell count (RPMI7951) | cell count (RVH-421) | cell count (SkMel28) | cell count (SkMel30) | cell count (SkMel5) | cell count (UACC257) | cell count (UACC62) | cell count (WM115) | cell count (WM1716) | cell count (WM3526) | cell count (SkMel2) | cell count (WM1745) | cell count (LB2518-MEL) | cell count (MZ2-MEL)
Cn1cc(C2=C(c3cn(C4CCN(Cc5ccccn5)CC4)c4ccccc34)C(=O)NC2=O)c2ccccc21 [Enzastaurin] + Cc1cc([N+](=O)[O-])ccc1NS(=O)(=O)c1cc(Cl)ccc1Cl [FH535] (first compound 4 µM, partner dose 5 µM) | 46.6% | 60.5% | 57.7% | 83.4% | 57.1% | 92.9% | 54% | 64% | 61.9% | 99.3% | 57.2% | 70.3% | 92.5% | 92.6% | 76.8% | 88.2% | – | – | – | –
Cn1cc(C2=C(c3cn(C4CCN(Cc5ccccn5)CC4)c4ccccc34)C(=O)NC2=O)c2ccccc21 [Enzastaurin] + CC(=O)O[C@@]12CO[C@@H]1C[C@H](O)[C@@]1(C)C(=O)[C@H](O)C3=C(C)[C@@H](OC(=O)[C@H](O)[C@@H](NC(=O)OC(C)(C)C)c4ccccc4)C[C@@](O)([C@@H](OC(=O)c4ccccc4)[C@H]21)C3(C)C [Docetaxel] (first compound 4 µM, partner dose 0.0005 µM) | 12.1% | 41.6% | 32.5% | 48.1% | 35.2% | 26.5% | 9.72% | 29.1% | 22% | 38.4% | 24.7% | 53.2% | 48.7% | 45.5% | 37.1% | 33.5% | 20.7% | 24.9% | – | –
C[C@]12O[C@H](C[C@]1(O)CO)n1c3ccccc3c3c4c(c5c6ccccc6n2c5c31)CNC4=O [Lestaurtinib] + Cn1c(Nc2ccc(C(F)(F)F)cc2)nc2cc(Oc3ccnc(-c4ncc(C(F)(F)F)[nH]4)c3)ccc21 [CHIR265] (first compound 0.02 µM, partner dose 0.4 µM) | 31.4% | 46% | 103% | 110% | 73.7% | 70.7% | 67.5% | 52.8% | 48.9% | 68.6% | 42.6% | 95.1% | 53.6% | 37.1% | 71.6% | 46% | 64% | 68.7% | – | –
C[As](C)SC[C@H](NC(=O)CC[C@H](N)C(=O)O)C(=O)NCC(=O)O [Darinaparsin] + COc1ccc(-c2ccc3c(N4CCOCC4)nc(N4C[C@@H](C)O[C@@H](C)C4)nc3n2)cc1CO [KU0063794] (first compound 2 µM, partner dose 0.1 µM) | 77.8% | 68.1% | 85% | 75.7% | 82.7% | 70.3% | 96.5% | 66.8% | 56.5% | 79.4% | 53.6% | 94.1% | 98% | 75.1% | 55.2% | 79% | 90.3% | 87.8% | – | –
N.N.[Cl][Pt][Cl] [cisplatin] + O=C(O)c1ccc(-c2c[nH]c3ncc(-c4ccccc4)cc23)cc1C1CCCC1 [GSK650394] (first compound 8 µM, partner dose 0.8 µM) | 98.9% | 105% | 83% | 81.4% | 86.7% | 107% | 96.2% | 119% | 106% | 103% | 99.5% | 73.3% | 111% | 99.7% | 78.9% | 89.9% | 104% | 81.4% | – | –
Cn1cc(C2=C(c3cn(C4CCN(Cc5ccccn5)CC4)c4ccccc34)C(=O)NC2=O)c2ccccc21 [Enzastaurin] + O=C(O)C(=O)Nc1sc2c(c1C(=O)O)CCNC2 [TCS401] (first compound 4 µM, partner dose 8.33333 µM) | 70.4% | 94.9% | 95.9% | 115% | 84.4% | 77.4% | 68.1% | 81.9% | 98% | 124% | 90.5% | 85.8% | 82% | 92.2% | 75.7% | 92.8% | 82.2% | – | 77.9% | 91.2%
Cn1cc(C2=C(c3cn(C4CCN(Cc5ccccn5)CC4)c4ccccc34)C(=O)NC2=O)c2ccccc21 [Enzastaurin] + O=C(Nc1ccccc1)c1cc([N+](=O)[O-])ccc1Cl [GW9662] (first compound 4 µM, partner dose 10 µM) | 63.8% | 82.5% | 95.9% | 73.3% | 82.1% | 67.8% | 45.5% | 44.6% | 49.4% | 87.4% | 80.7% | 72.3% | 62.7% | 94.9% | 77.9% | 76.3% | 36.5% | – | 44.4% | 91.2%
Cn1cc(C2=C(c3cn(C4CCN(Cc5ccccn5)CC4)c4ccccc34)C(=O)NC2=O)c2ccccc21 [Enzastaurin] + CC(C)(C)c1cnc(CSc2cnc(NC(=O)C3CCNCC3)s2)o1 [SNS-032] (first compound 4 µM, partner dose 0.05 µM) | 54.1% | 96.7% | 68.5% | 64.1% | 86.4% | 70.2% | 19% | 39.1% | 66.6% | 75% | 55% | 81.7% | 50.3% | 53.8% | 48.2% | 74% | – | 41.9% | – | –
Cn1cc(C2=C(c3cn(C4CCN(Cc5ccccn5)CC4)c4ccccc34)C(=O)NC2=O)c2ccccc21 [Enzastaurin] + C[C@@H](Oc1cc(-c2cnn(C3CCNCC3)c2)cnc1N)c1c(Cl)ccc(F)c1Cl [Crizotinib] (first compound 4 µM, partner dose 1 µM) | 59% | 84.1% | 74.9% | 100% | 75% | 78.8% | 43.2% | 46.8% | 53.6% | 91.9% | 72.8% | 80% | 47.4% | 49.9% | 70.6% | 70.4% | 50.7% | 28% | – | –
